Experimental findings from the supplement of paper PMC4604168 (melanoma cell lines) are described below.

Some of the results follow. Many values rest on one well or one pass, so single values are uncertain.

Among the test systems are MZ2-MEL; MeWo; RPMI7951; RVH-421; SkMel28; SkMel30; SkMel5; UACC257; UACC62; WM115; WM1716; WM1745; WM3526; WM3619; WM451Lu.
Holding throughout (test): cell count relative to DMSO control; melanoma cells; higher = more viable cells
Holding throughout (details): library dose: low library concentration; 72 h
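Also: cell number obtained by counting DAPI-stained nuclei in high-throughput microscope images with image analysis software, screen run in 1,536-well plates.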

For the molecule `COc1cc(Nc2ncc(F)c(Nc3ccc4c(n3)NC(=O)C(C)(C)O4)n2)cc(OC)c1OC` [Tamatinib] + O=c1cc(-c2cccc3c2Sc2ccccc2S3)oc(N2CCOCC2)c1 [KU55933] (first compound 0.4 µM, partner dose 1 µM), the cell count with MZ2-MEL was determined as 103%; with MeWo it was 93.6%; in the assay with RPMI7951, 89.4%; in the assay with RVH-421 it was 105%; in the assay with SkMel28, 93.5%; with SkMel30, 105%. Also, the cell count in the assay with SkMel5 is 97.3%; with UACC257 it was 54.9%; in the assay with UACC62, 102%; with WM115, 93.1%; in the assay on WM1716, 98.8%; with WM1745, 78%. For the same molecule, the results for the cell count in the assay on WM3526, with WM3619 and in the assay with WM451Lu were 78.4%, 83.7% and 91.1%, respectively.
Regarding `C[C@@H]1CCN(C(=O)CC#N)C[C@@H]1N(C)c1ncnc2[nH]ccc12` + CC(C)CCN1c2nc(Nc3cc(F)c(O)c(F)c3)ncc2N(C)C(=O)C1C [BID1870] (first compound 1 µM, partner dose 0.2 µM), the cell count turned out to be 96.2% in the assay on MZ2-MEL; 99.9% in the assay on MeWo; 100% with RPMI7951; 98.6% in the assay with RVH-421; 74.6% with SkMel28; 92.4% in the assay on SkMel30. The cell count in the assay with SkMel5 is 104%; in the assay on UACC257, 96.3%; with UACC62, 85.3%; with WM115, 109%; with WM1716, 98.4%; in the assay on WM1745, 92%. In addition, the cell count in the assay on WM3526 was 93.1%; with WM3619 it was 103%; with WM451Lu, 136%.
In the case of `O=C(Nc1cccc(Cl)c1)Nc1ncc(CCNc2ncnc3ccsc23)s1` + CC(C)CCN1c2nc(Nc3cc(F)c(O)c(F)c3)ncc2N(C)C(=O)C1C [BID1870] (first compound 0.0008 µM, partner dose 0.2 µM), the cell count was 103% with MZ2-MEL; 98.2% in the assay with MeWo; 103% in the assay with RPMI7951; 109% with RVH-421; 99.6% in the assay on SkMel28; 84.6% in the assay on SkMel30. The cell count with SkMel5 was determined as 86.2%; in the assay with UACC257, 77.8%; with UACC62, 91.2%; in the assay with WM115, 68.5%; with WM1716, 107%; with WM1745 it was 108%. The cell count was 92.5% in the assay on WM3526, 95.2% in the assay with WM3619 and 97.7% with WM451Lu.
Turning to `Cn1cncc1[C@@](N)(c1ccc(Cl)cc1)c1ccc2c(c1)c(-c1cccc(Cl)c1)cc(=O)n2C` [tipifarnib] + O=C(Nc1ccccc1)c1cc([N+](=O)[O-])ccc1Cl [GW9662] (first compound 0.01 µM, partner dose 2 µM), the cell count is 101% with MZ2-MEL; 81.6% with MeWo; 90.9% in the assay with RPMI7951; 112% with RVH-421; 77.5% in the assay on SkMel28; 82.5% in the assay with SkMel30. For the same molecule, the cell count is 107% in the assay on SkMel5; 85.6% in the assay on UACC257; 81.4% in the assay on UACC62; 95.5% with WM115; 87.6% with WM1716; 121% in the assay with WM1745. Also, the cell count in the assay on WM3526 is 89.4%; with WM3619, 80.3%; in the assay with WM451Lu it was 115%.
Take `Cn1cncc1[C@@](N)(c1ccc(Cl)cc1)c1ccc2c(c1)c(-c1cccc(Cl)c1)cc(=O)n2C` [tipifarnib] + Cc1cc([N+](=O)[O-])ccc1NS(=O)(=O)c1cc(Cl)ccc1Cl [FH535] (first compound 0.01 µM, partner dose 1 µM): the cell count is 92.6% in the assay on MZ2-MEL; 94.2% in the assay on MeWo; 81% in the assay with RPMI7951; 83.8% in the assay on RVH-421; 79.8% with SkMel28; 92.6% in the assay with SkMel30. Also, the cell count turned out to be 88.3% in the assay with SkMel5; 75.7% in the assay on UACC257; 74.9% with UACC62; 82.3% in the assay with WM115; 75.7% in the assay on WM1716; 87.1% in the assay on WM1745. Besides, the cell count turned out to be 81.2% in the assay with WM3526, 62.9% in the assay with WM3619 and 87.9% in the assay with WM451Lu.
For the molecule `Cn1cncc1[C@@](N)(c1ccc(Cl)cc1)c1ccc2c(c1)c(-c1cccc(Cl)c1)cc(=O)n2C` [tipifarnib] + COc1cc2ncnc(Nc3ccc(Oc4ccccc4)cc3)c2cc1OC [SrcI1] (first compound 0.01 µM, partner dose 2 µM), the cell count in the assay on MZ2-MEL is 94.2%; in the assay on MeWo, 88.5%; with RPMI7951 it was 98.7%; in the assay with RVH-421, 99.8%; in the assay on SkMel28, 84.1%; in the assay on SkMel30 it was 94.2%. The cell count in the assay on SkMel5 came out at 97%; in the assay on UACC257, 74.6%; with UACC62, 68.1%; in the assay with WM115, 89.9%; in the assay with WM1716, 88%; in the assay on WM1745, 84.7%. Further, the cell count in the assay on WM3526 turned out to be 74.5%; with WM3619, 87.4%; with WM451Lu it was 97.7%.
Regarding `COc1cc(Nc2ncc(F)c(Nc3ccc4c(n3)NC(=O)C(C)(C)O4)n2)cc(OC)c1OC` [Tamatinib] + c1cc(-c2cnn3cc(-c4ccc(OCCN5CCCCC5)cc4)cnc23)ccn1 [Dorsomorphin] (first compound 0.4 µM, partner dose 0.4 µM), the cell count came to 92.7% in the assay on MZ2-MEL; 89.7% in the assay with MeWo; 89.4% in the assay on RPMI7951; 94.1% in the assay with RVH-421; 81.7% in the assay on SkMel28; 87.2% with SkMel30. Also, the cell count in the assay with SkMel5 stood at 86.1%; with UACC257, 74.9%; in the assay with UACC62 it was 81.5%; with WM115, 88.7%; in the assay with WM1716 it was 85.3%; in the assay on WM1745, 50.1%. For the same molecule, the cell count is 92.2% in the assay on WM3526, 97.9% with WM3619 and 98.7% in the assay with WM451Lu.
In the case of `C[C@@H]1CCN(C(=O)CC#N)C[C@@H]1N(C)c1ncnc2[nH]ccc12` + Oc1cc(-c2nc(-c3ccccc3)[nH]c2-c2ccncc2)ccc1Cl [L779450] (first compound 1 µM, partner dose 0.2 µM), the cell count with MZ2-MEL came to 78%; in the assay on MeWo it was 93.1%; in the assay on RPMI7951, 108%; in the assay with RVH-421 it was 94.8%; in the assay on SkMel28, 94.6%; in the assay with SkMel30 it was 88.5%. The cell count in the assay on SkMel5 came to 97.2%; with UACC257, 87.9%; with UACC62, 72.2%; in the assay with WM115 it was 86.4%; in the assay with WM1716, 114%; with WM1745, 88%. Besides, the cell count was 69.1% in the assay on WM3526, 111% in the assay with WM3619 and 103% with WM451Lu.
Take `CC1(C)NC(=O)N(c2ccc([N+](=O)[O-])c(C(F)(F)F)c2)C1=O` [nilutamide] + Oc1nc(-c2ccc(C(F)(F)F)cc2)nc2c1CSCC2 [XAV939] (first compound 1 µM, partner dose 2 µM): the cell count in the assay on MZ2-MEL turned out to be 95.9%; with MeWo, 92.1%; in the assay with RPMI7951, 88.3%; with RVH-421, 86.6%; in the assay with SkMel28, 88.3%; with SkMel30, 153%. The cell count with SkMel5 amounted to 78.8%; in the assay on UACC257, 109%; with UACC62, 108%; in the assay on WM115, 92.7%; in the assay on WM1716 it was 56.9%; in the assay on WM1745 it was 83.4%. Further, the values for the cell count with WM3526, with WM3619 and in the assay with WM451Lu were 126%, 105% and 104%, respectively.
As for `Cn1cncc1[C@@](N)(c1ccc(Cl)cc1)c1ccc2c(c1)c(-c1cccc(Cl)c1)cc(=O)n2C` [tipifarnib] + O=c1cc(-c2cccc3c2Sc2ccccc2S3)oc(N2CCOCC2)c1 [KU55933] (first compound 0.01 µM, partner dose 1 µM), the cell count came out at 101% with MZ2-MEL; 87.3% with MeWo; 86.5% with RPMI7951; 104% with RVH-421; 76% in the assay on SkMel28; 95.6% in the assay with SkMel30. In addition, the cell count with SkMel5 is 87.8%; in the assay with UACC257, 92.9%; with UACC62 it was 58.3%; in the assay with WM115 it was 91.7%; in the assay on WM1716, 70.8%; in the assay on WM1745 it was 97.4%. The cell count turned out to be 74.8% with WM3526, 105% in the assay on WM3619 and 91.9% with WM451Lu.
